According to the supplement of paper PMC4967469:
By IC50 is meant the dose at which the fit gives 50% viability; a limit (>, <) means that the fit lies beyond the doses tested. AUC is the area under the same curve over the 256-fold range up to the top dose, as a fraction; values near 1 show little effect. For some assays here: A top dose marked as inferred comes from the curve model; the source does not state it. For some assays here: Drugs with an entry number were screened twice under separate entries, and the two screens often disagree.

Tests used:
Test in all cases: Viability of human cancer cell lines after 72 h of drug (GDSC screen)
Afatinib = compound: CN(C)C/C=C/C(=O)Nc1cc2c(Nc3ccc(F)c(Cl)c3)ncnc2cc1O[C@H]1CCOC1 [Afatinib]
Procedure: (§1)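 Human cancer cell lines in 384-well plates, medium with 10% serum, drug for 72 h over a 256-fold dose range (nine 2-fold or five 4-fold steps up to the top dose). Adherent lines were fixed and stained with the nucleic acid dye Syto60, suspension lines read with resazurin; signal relative to control wells, capped at 0 and 100%. One two-parameter sigmoid per drug and line, fitted in a mixed model over all curves with the slope shared within a line.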

SNX-2112 = compound: CC1(C)CC(=O)c2c(C(F)(F)F)nn(-c3ccc(C(N)=O)c(N[C@H]4CC[C@H](O)CC4)c3)c2C1 [SNX-2112]; conditions: top dose 2.56 µM
Procedure: as §1

XMD13-2 = compound: O=C(NC1CC1)c1cccc(-c2ccc3c(NC(=O)C4CC4)n[nH]c3c2)c1 [XMD13-2]; conditions: top dose 10.24 µM; top dose inferred
Procedure: as §1

Vinblastine = compound: CC[C@]1(O)C[C@@H]2CN(CCc3c([nH]c4ccccc34)[C@@](C(=O)OC)(c3cc4c(cc3OC)N(C)[C@H]3[C@@](O)(C(=O)OC)[C@H](OC(C)=O)[C@]5(CC)C=CCN6CC[C@]43[C@@H]65)C2)C1 [Vinblastine]; conditions: top dose 0.1 µM; top dose inferred
Procedure: as §1

PF-562271 = compound: CN(c1ncccc1CNc1nc(Nc2ccc3c(c2)CC(=O)N3)ncc1C(F)(F)F)S(C)(=O)=O [PF-562271]; conditions: top dose 2.56 µM; top dose inferred
Procedure: as §1

[1] = top dose 0.5 µM, screen: GDSC drug entry 1032
[2] = top dose 10 µM, screen: GDSC drug entry 1377, top dose inferred

For BC-1 (B-cell lymphoma, suspension), the AUC (Afatinib; [1]) was 0.99, the IC50 (Afatinib; [1]) was over 500 nM and the AUC (Afatinib; [2]) was 0.864. For the same cell line, the IC50 (Afatinib; [2]) was 6660 nM, the AUC (SNX-2112) was 0.303 and the IC50 (SNX-2112) was 49.4 nM. The AUC (XMD13-2) was 0.61, the IC50 (XMD13-2) was 1220 nM and the AUC (Vinblastine) was 0.779. The IC50 (Vinblastine) was 34.7 nM, the AUC (PF-562271) was 0.856 and the IC50 (PF-562271) was 1590 nM.

BE2-M17 (neuroblastoma, adherent) gave an AUC (Afatinib; [1]) of 0.968, an IC50 (Afatinib; [1]) of over 500 nM and an AUC (Afatinib; [2]) of 0.986. For the same cell line, the IC50 (Afatinib; [2]) was over 10000 nM, the AUC (SNX-2112) was 0.92 and the IC50 (SNX-2112) was over 2560 nM. It also gave an AUC (XMD13-2) of 0.959, an IC50 (XMD13-2) of over 10200 nM and an AUC (Vinblastine) of 0.591. The IC50 (Vinblastine) was 11.2 nM, the AUC (PF-562271) was 0.942 and the IC50 (PF-562271) was over 2560 nM.

Cell Line “BE-13 (lymphoblastic leukaemia, suspension)” has an AUC (Afatinib; [1]) of 0.966, an IC50 (Afatinib; [1]) of over 500 nM and an AUC (Afatinib; [2]) of 0.931. It also gave an IC50 (Afatinib; [2]) of over 10000 nM, an AUC (SNX-2112) of 0.359 and an IC50 (SNX-2112) of 67 nM. The AUC (XMD13-2) was 0.736, the IC50 (XMD13-2) was 2870 nM and the AUC (Vinblastine) was 0.299. The IC50 (Vinblastine) was 1.77 nM, the AUC (PF-562271) was 0.916 and the IC50 (PF-562271) was over 2560 nM.

BFTC-905 (bladder, adherent) was tested, and the AUC (Afatinib; [1]) was 0.99, the IC50 (Afatinib; [1]) was over 500 nM and the AUC (Afatinib; [2]) was 0.938. For the same cell line, the IC50 (Afatinib; [2]) was over 10000 nM, the AUC (SNX-2112) was 0.562 and the IC50 (SNX-2112) was 230 nM. The AUC (XMD13-2) was 0.887, the IC50 (XMD13-2) was 8670 nM and the AUC (Vinblastine) was 0.416. It also gave an IC50 (Vinblastine) of 3.81 nM, an AUC (PF-562271) of 0.912 and an IC50 (PF-562271) of over 2560 nM.

Cell Line MV-4-11 (leukaemia, suspension) has an AUC (SNX-2112) of 0.331, an IC50 (SNX-2112) of 59.8 nM and an AUC (XMD13-2) of 0.847. For the same cell line, the IC50 (XMD13-2) was 5620 nM, the AUC (Vinblastine) was 0.33 and the IC50 (Vinblastine) was 2.32 nM. For the same cell line, the AUC (PF-562271) was 0.611 and the IC50 (PF-562271) was 304 nM.

Cell Line NB1 (neuroblastoma, semi-adherent) has an AUC (SNX-2112) of 0.776, an IC50 (SNX-2112) of 1130 nM and an AUC (XMD13-2) of 0.946. For the same cell line, the IC50 (XMD13-2) was over 10200 nM, the AUC (Vinblastine) was 0.434 and the IC50 (Vinblastine) was 4.04 nM. It also gave an AUC (PF-562271) of 0.87 and an IC50 (PF-562271) of over 2560 nM.

Work on “NCI-H292 (lung adenocarcinoma, adherent)” yielded an AUC (SNX-2112) of 0.187, an IC50 (SNX-2112) of 14.6 nM and an AUC (XMD13-2) of 0.979. The IC50 (XMD13-2) was over 10200 nM, the AUC (Vinblastine) was 0.41 and the IC50 (Vinblastine) was 3.35 nM. The AUC (PF-562271) was 0.851 and the IC50 (PF-562271) was over 2560 nM.

“NCI-H358 (lung adenocarcinoma, adherent)” was tested, and the AUC (SNX-2112) was 0.31, the IC50 (SNX-2112) was 43.8 nM and the AUC (XMD13-2) was 0.86. For the same cell line, the IC50 (XMD13-2) was over 10200 nM, the AUC (Vinblastine) was 0.832 and the IC50 (Vinblastine) was 74.3 nM. The AUC (PF-562271) was 0.855 and the IC50 (PF-562271) was 2420 nM.

Cell Line “NCI-H1623 (lung adenocarcinoma, adherent)” has an AUC (SNX-2112) of 0.922, an IC50 (SNX-2112) of over 2560 nM and an AUC (XMD13-2) of 0.985. The IC50 (XMD13-2) was over 10200 nM, the AUC (Vinblastine) was 0.919 and the IC50 (Vinblastine) was over 100 nM. It also gave an AUC (PF-562271) of 0.98 and an IC50 (PF-562271) of over 2560 nM.

With “NCI-H1781 (lung adenocarcinoma, adherent)” the AUC (SNX-2112) was 0.958, the IC50 (SNX-2112) was over 2560 nM and the AUC (XMD13-2) was 0.989. It also gave an IC50 (XMD13-2) of over 10200 nM, an AUC (Vinblastine) of 0.723 and an IC50 (Vinblastine) of 26.8 nM. For the same cell line, the AUC (PF-562271) was 0.937 and the IC50 (PF-562271) was over 2560 nM.

With “NCI-H1975 (lung adenocarcinoma, adherent)” the AUC (SNX-2112) was 0.645, the IC50 (SNX-2112) was 428 nM and the AUC (XMD13-2) was 0.967. The IC50 (XMD13-2) was over 10200 nM, the AUC (Vinblastine) was 0.594 and the IC50 (Vinblastine) was 11.8 nM. For the same cell line, the AUC (PF-562271) was 0.869 and the IC50 (PF-562271) was over 2560 nM.

PC-14 (lung adenocarcinoma, adherent) was tested, and the AUC (SNX-2112) was 0.328, the IC50 (SNX-2112) was 56.5 nM and the AUC (XMD13-2) was 0.889. The IC50 (XMD13-2) was 9520 nM, the AUC (Vinblastine) was 0.387 and the IC50 (Vinblastine) was 3.17 nM. The AUC (PF-562271) was 0.968 and the IC50 (PF-562271) was over 2560 nM.

SW620 (large intestine, adherent) was tested, and the AUC (SNX-2112) was 0.356, the IC50 (SNX-2112) was 67.5 nM and the AUC (XMD13-2) was 0.839. For the same cell line, the IC50 (XMD13-2) was 5830 nM, the AUC (Vinblastine) was 0.61 and the IC50 (Vinblastine) was 12.1 nM. It also gave an AUC (PF-562271) of 0.881 and an IC50 (PF-562271) of 2130 nM.

With U-2-OS (osteosarcoma, adherent) the AUC (SNX-2112) was 0.981, the IC50 (SNX-2112) was over 2560 nM and the AUC (XMD13-2) was 0.957. The IC50 (XMD13-2) was over 10200 nM, the AUC (Vinblastine) was 0.712 and the IC50 (Vinblastine) was 26.5 nM. It also gave an AUC (PF-562271) of 0.904 and an IC50 (PF-562271) of over 2560 nM.
